# From the supplement of paper PMC8728848
# This is one part of the list.
# B1: Clec2 (Mus musculus), Q9JL99 (protein)
# chain: MQDEDGYITLNIKPRKQALSSAEPASSWWRVMALVLLISSMGLVVGLVALGIMSVTQQKYLLAEKENLSATLQQLAKKFCQELIRQSEIKTKSTFEHKCSPCATKWRYHGDSCYGFFRRNLTWEESKQYCTEQNATLVKTASQSTLDYIAERITSVRWIGLSRQNSKKDWMWEDSSVLRKNGINLSGNTEENMNCAYLHNGKIHPASCKERHYLICERNAGMTRVDQLL
# Legend:
# Assay in all cases: glycan array binding signal (z-score within array); higher = stronger binding
# Settings in all cases: glycan notation: IUPAC condensed, linker removed
# Gal(a1-3)Gal = target: Gal(a1-3)Gal
# How it was run: (§1)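 From the Consortium for Functional Glycomics database, 3228 arrays were curated, keeping only those whose protein sequence was available. Binding is given as a within-array Z-score averaged across arrays sharing a protein sequence and across linkers. Negative Z-scores can be read as non-binding.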
# Gal(a1-3)Gal(b1-3)GlcNAc = target: Gal(a1-3)Gal(b1-3)GlcNAc
# How it was run: as §1
# [1] = target: Gal(a1-3)Gal(b1-3)GlcNAc(b1-2)Man
# How it was run: as §1
# [2] = target: Gal(a1-3)Gal(b1-3)GlcNAc(b1-2)Man(a1-3)[Gal(a1-3)Gal(b1-3)GlcNAc(b1-2)Man(a1-6)]Man(b1-4)GlcNAc(b1-4)GlcNAc
# How it was run: as §1
# [3] = target: Gal(a1-3)Gal(b1-3)GlcNAc(b1-3)GalNAc
# How it was run: as §1
# [4] = target: Gal(a1-3)Gal(b1-3)GlcNAc(b1-6)GalNAc
# How it was run: as §1
# [5] = target: Gal(a1-3)Gal(b1-3)[Fuc(a1-4)]GlcNAc(b1-2)Man(a1-3)[Gal(a1-3)Gal(b1-3)[Fuc(a1-4)]GlcNAc(b1-2)Man(a1-6)]Man(b1-4)GlcNAc(b1-4)GlcNAc
# How it was run: as §1
# Gal(a1-3)Gal(b1-4)Glc = target: Gal(a1-3)Gal(b1-4)Glc
# How it was run: as §1
# Gal(a1-3)Gal(b1-4)GlcNAc = target: Gal(a1-3)Gal(b1-4)GlcNAc
# How it was run: as §1
# [6] = target: Gal(a1-3)Gal(b1-4)GlcNAc(b1-2)Man
# How it was run: as §1
# [7] = target: Gal(a1-3)Gal(b1-4)GlcNAc(b1-2)Man(a1-3)[Gal(a1-3)Gal(b1-4)GlcNAc(b1-2)Man(a1-6)]Man(b1-4)GlcNAc(b1-4)GlcNAc
# How it was run: as §1
# [8] = target: Gal(a1-3)Gal(b1-4)GlcNAc(b1-3)GalNAc
# How it was run: as §1
# [9] = target: Gal(a1-3)Gal(b1-4)GlcNAc(b1-6)GalNAc
# How it was run: as §1
# [10] = target: Gal(a1-3)Gal(b1-4)[Fuc(a1-3)]GlcNAc
# How it was run: as §1
# [11] = target: Gal(a1-3)Gal(b1-4)[Fuc(a1-3)]GlcNAc(b1-2)Man(a1-3)[Gal(a1-3)Gal(b1-4)[Fuc(a1-3)]GlcNAc(b1-2)Man(a1-6)]Man(b1-4)GlcNAc(b1-4)GlcNAc
# How it was run: as §1
# Gal(a1-3)GalNAc = target: Gal(a1-3)GalNAc
# How it was run: as §1
# [12] = target: Gal(a1-3)[Gal(a1-4)]Gal(b1-4)GlcNAc
# How it was run: as §1
# [13] = target: Gal(a1-4)Gal(b1-3)GlcNAc(b1-2)Man(a1-3)[Gal(a1-4)Gal(b1-3)GlcNAc(b1-2)Man(a1-6)]Man(b1-4)GlcNAc(b1-4)GlcNAc
# How it was run: as §1
# Gal(a1-4)Gal(b1-4)Glc = target: Gal(a1-4)Gal(b1-4)Glc
# How it was run: as §1
# Gal(a1-4)Gal(b1-4)GlcNAc = target: Gal(a1-4)Gal(b1-4)GlcNAc
# How it was run: as §1
# [14] = target: Gal(a1-4)Gal(b1-4)GlcNAc(b1-2)Man(a1-3)[Gal(a1-4)Gal(b1-4)GlcNAc(b1-2)Man(a1-6)]Man(b1-4)GlcNAc(b1-4)GlcNAc
# How it was run: as §1
# [15] = target: Gal(a1-4)Gal(b1-4)GlcNAc(b1-3)Gal(b1-4)Glc
# How it was run: as §1
# Gal(a1-4)GlcNAc = target: Gal(a1-4)GlcNAc
# How it was run: as §1
# Gal(a1-6)Glc = target: Gal(a1-6)Glc
# How it was run: as §1
# Gal(b1-2)Gal = target: Gal(b1-2)Gal
# How it was run: as §1
# Gal(b1-3)Gal = target: Gal(b1-3)Gal
# How it was run: as §1
# Gal(b1-3)Gal(b1-4)GlcNAc = target: Gal(b1-3)Gal(b1-4)GlcNAc
# How it was run: as §1
# Gal(b1-3)GalNAc = target: Gal(b1-3)GalNAc
# How it was run: as §1
# [16] = target: Gal(b1-3)GalNAc(a1-3)[Fuc(a1-2)]Gal(b1-4)Glc
# How it was run: as §1
# [17] = target: Gal(b1-3)GalNAc(a1-3)[Fuc(a1-2)]Gal(b1-4)GlcNAc
# How it was run: as §1
# Gal(b1-3)GalNAc(b1-3)Gal = target: Gal(b1-3)GalNAc(b1-3)Gal
# How it was run: as §1
# [18] = target: Gal(b1-3)GalNAc(b1-3)Gal(a1-4)Gal(b1-4)Glc
# How it was run: as §1
# [19] = target: Gal(b1-3)GalNAc(b1-4)Gal(b1-4)Glc
# How it was run: as §1
# [20] = target: Gal(b1-3)GalNAc(b1-4)[Neu5Ac(a2-3)]Gal(b1-4)Glc
# How it was run: as §1
# Gal(b1-3)GlcNAc = target: Gal(b1-3)GlcNAc
# How it was run: as §1
# [21] = target: Gal(b1-3)GlcNAc(a1-3)Gal(b1-4)GlcNAc
# How it was run: as §1
# [22] = target: Gal(b1-3)GlcNAc(a1-6)Gal(b1-4)GlcNAc
# How it was run: as §1
# Gal(b1-3)GlcNAc(b1-2)Man = target: Gal(b1-3)GlcNAc(b1-2)Man
# How it was run: as §1
binder,measurement,setting,value
B1,glycan array binding signal (z-score),Gal(a1-3)Gal,-0.512
same,glycan array binding signal (z-score),Gal(a1-3)Gal(b1-3)GlcNAc,3
same,glycan array binding signal (z-score),[1],-0.462
same,glycan array binding signal (z-score),[2],0.091
same,glycan array binding signal (z-score),[3],-0.551
same,glycan array binding signal (z-score),[4],-0.445
same,glycan array binding signal (z-score),[5],0.044
same,glycan array binding signal (z-score),Gal(a1-3)Gal(b1-4)Glc,-0.277
same,glycan array binding signal (z-score),Gal(a1-3)Gal(b1-4)GlcNAc,-0.198
same,glycan array binding signal (z-score),[6],-0.525
same,glycan array binding signal (z-score),[7],-0.316
same,glycan array binding signal (z-score),[8],-0.779
same,glycan array binding signal (z-score),[9],-0.587
same,glycan array binding signal (z-score),[10],-0.15
same,glycan array binding signal (z-score),[11],6.06
same,glycan array binding signal (z-score),Gal(a1-3)GalNAc,-0.242
same,glycan array binding signal (z-score),[12],0.641
same,glycan array binding signal (z-score),[13],0.756
same,glycan array binding signal (z-score),Gal(a1-4)Gal(b1-4)Glc,0.329
same,glycan array binding signal (z-score),Gal(a1-4)Gal(b1-4)GlcNAc,0.275
same,glycan array binding signal (z-score),[14],-0.282
same,glycan array binding signal (z-score),[15],-0.892
same,glycan array binding signal (z-score),Gal(a1-4)GlcNAc,0.562
same,glycan array binding signal (z-score),Gal(a1-6)Glc,-0.101
same,glycan array binding signal (z-score),Gal(b1-2)Gal,1.32
same,glycan array binding signal (z-score),Gal(b1-3)Gal,0.682
same,glycan array binding signal (z-score),Gal(b1-3)Gal(b1-4)GlcNAc,-0.532
same,glycan array binding signal (z-score),Gal(b1-3)GalNAc,-0.172
same,glycan array binding signal (z-score),[16],-0.302
same,glycan array binding signal (z-score),[17],-0.939
same,glycan array binding signal (z-score),Gal(b1-3)GalNAc(b1-3)Gal,-0.572
same,glycan array binding signal (z-score),[18],-0.092
same,glycan array binding signal (z-score),[19],-0.614
same,glycan array binding signal (z-score),[20],0.427
same,glycan array binding signal (z-score),Gal(b1-3)GlcNAc,-0.105
same,glycan array binding signal (z-score),[21],-0.77
same,glycan array binding signal (z-score),[22],-0.846
same,glycan array binding signal (z-score),Gal(b1-3)GlcNAc(b1-2)Man,-0.528
